Source: publication PMC4336329 (PLoS ONE, 2015)
In all, about 310,000 compounds went through this assay and about 14,000 (4.5%) showed an effect of 50% or more. Effects have a minus sign here. The list shows a part of the results.

biological target: human ether-à-go-go-related gene (hERG) potassium channel (human, UniProt Q12809); experiment: primary screen, population patch clamp on CHO cells stably expressing hERG
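Also: peak tail current of the secondary pulse compared with the same well before compound.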

Chain of human ether-à-go-go-related gene (hERG) potassium channel (Q12809 whole entry, looked up): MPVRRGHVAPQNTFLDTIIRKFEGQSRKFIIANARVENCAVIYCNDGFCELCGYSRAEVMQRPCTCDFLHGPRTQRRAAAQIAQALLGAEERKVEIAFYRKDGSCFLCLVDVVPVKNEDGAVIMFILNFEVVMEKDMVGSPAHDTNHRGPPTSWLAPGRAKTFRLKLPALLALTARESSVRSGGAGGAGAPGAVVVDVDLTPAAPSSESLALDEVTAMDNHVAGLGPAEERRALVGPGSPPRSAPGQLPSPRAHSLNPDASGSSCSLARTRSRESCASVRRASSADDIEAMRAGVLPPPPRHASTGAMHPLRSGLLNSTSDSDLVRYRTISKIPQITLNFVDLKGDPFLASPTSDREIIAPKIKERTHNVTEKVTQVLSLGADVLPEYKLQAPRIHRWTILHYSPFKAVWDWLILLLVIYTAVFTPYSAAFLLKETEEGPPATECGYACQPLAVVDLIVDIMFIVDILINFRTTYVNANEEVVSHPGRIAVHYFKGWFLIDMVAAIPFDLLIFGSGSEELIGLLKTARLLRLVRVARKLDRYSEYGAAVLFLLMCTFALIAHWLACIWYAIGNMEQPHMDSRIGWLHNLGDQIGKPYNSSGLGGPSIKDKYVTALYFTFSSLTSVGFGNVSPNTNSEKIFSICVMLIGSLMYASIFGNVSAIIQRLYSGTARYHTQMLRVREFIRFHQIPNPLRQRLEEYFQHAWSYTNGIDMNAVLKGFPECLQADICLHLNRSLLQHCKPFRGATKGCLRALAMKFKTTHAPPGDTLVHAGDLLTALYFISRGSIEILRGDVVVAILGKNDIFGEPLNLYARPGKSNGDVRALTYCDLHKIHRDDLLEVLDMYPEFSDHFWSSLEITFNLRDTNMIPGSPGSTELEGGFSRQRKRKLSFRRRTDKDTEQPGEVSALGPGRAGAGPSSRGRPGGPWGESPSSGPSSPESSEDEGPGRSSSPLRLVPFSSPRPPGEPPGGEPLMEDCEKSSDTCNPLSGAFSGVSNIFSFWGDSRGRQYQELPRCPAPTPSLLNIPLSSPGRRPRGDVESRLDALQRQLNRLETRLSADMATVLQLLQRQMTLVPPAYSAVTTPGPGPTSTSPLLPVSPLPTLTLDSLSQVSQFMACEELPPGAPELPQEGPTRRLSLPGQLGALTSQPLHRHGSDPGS

Structure (SMILES)	hERG current change (%, negative = inhibition) at 10uM [%]
CCOc1nc(C)cc(C)c1S(=O)(=O)c1ccc(Cl)cc1	3.85
Cc1noc(C)c1COc1cccc(C(=O)NC(C)(C)C)c1	30.9
COc1ccc(C(=O)COC(=O)c2nc3nccc(C)n3n2)cc1F	-3.84
CC1CCCN(c2c([N+](=O)[O-])c(=O)oc3ccccc23)C1 (stereo not shown)	-43.1
O=[N+]([O-])c1ccc2oc(-c3ccccc3)nc2c1	18.6
Cc1ccc(NC(=O)CNc2ccc(Cl)c(Cl)c2)cc1S(=O)(=O)N(C)C	-13.4
CCc1noc(C)c1C(=O)N1CCN(S(=O)(=O)c2ccc(C(C)=O)cc2)CC1	-7.91
Cc1ccc(P(=O)(O)c2ccc(C)cc2)cc1	-4.49
COc1ccccc1NC(=O)CC1COc2ccccc2O1 (stereo not shown)	2.74
Cc1cccc(C(=O)OC(C)C(=O)Nc2ccc(S(=O)(=O)Nc3ncccn3)cc2)c1C (stereo not shown)	-3.74
C=CCn1c(SCn2nnc3ccccc3c2=O)nnc1-c1ccc(F)cc1	-28.9
Cc1ccc(Nc2ccc(S(=O)(=O)N3CCOCC3)cc2[N+](=O)[O-])c(C)c1	-26.4
F[B-](F)(F)F.OCCCCC[NH+]=c1cc(-c2ccccc2)oc2ccc(Cl)cc12	-80.3
CCn1c(=O)c(C(=O)NCCNCCO)c(O)c2ccccc21.Cl	5.89
O=C(c1ccc(CSCc2ccccc2F)o1)N1CCN(c2ccc(N3CCOCC3)nn2)CC1	-66.7
C=CCNC(=S)N/N=C/c1ccc(-c2ccc(Cl)cc2Cl)o1	1.88
COc1ccc(NC(=O)C(C)N(c2ccc(C)cc2)S(C)(=O)=O)c(OC)c1 (stereo not shown)	-14.4
Nc1nnc(SCC(=O)Nc2cccnc2Cl)s1	3.54
Cc1ccc(NC(=O)COC(=O)c2c(C)nn(-c3ccccc3)c2C)cc1	0.18
CC(C)c1ccc(S(=O)(=O)N2CCN(C(=O)CN3C(=O)NC4(CCCCC4)C3=O)CC2)cc1	5.54
Cn1c(=NC(=O)C2CCCCC2)sc2cc([N+](=O)[O-])ccc21	27.8
Cc1cccc(N(C)c2ncnc3onc(-c4ccc(F)cc4)c23)c1C	-8.28

Structure (SMILES)	hERG current change (%, negative = inhibition) at 10uM [%]
Cn1c(=O)[nH]c(=O)c2c1nc(SCc1ccccc1Cl)n2CC(N)=O	9.27
Cc1ccc(N(C(=O)c2cc3ccccc3oc2=O)C2C=CS(=O)(=O)C2)cc1 (stereo not shown)	-6.15
CN1CCN(c2ccc(CNS(=O)(=O)Cc3cccc(C(F)(F)F)c3)cc2)CC1	-17.6
O=C(Oc1ccccc1)N(c1ccccc1)c1ccccc1	2.8
CCCCn1c(N)c(N(CC(C)C)C(=O)Cn2c(=O)cnc3ccccc32)c(=O)[nH]c1=O	10.1
CCOC(=O)Nc1ccc2c(c1)Sc1ccccc1N2C(=O)CCN1CCOCC1	-17.6
COc1ccc2[nH]cc(C3=CCNCC3)c2c1.O=C(O)CCC(=O)O	1.67
CCOC(=O)c1c2ccccc2[n+]([O-])n1[C@@H](C)C(N)=O	7.87
CCc1ccccc1NC(=O)CN(C)Cc1c(O)ccc2ccccc12	3.3
O=C(COc1ccc(Cl)cc1)NCc1nnc(SCC(=O)N2CCCCCC2)o1	-15.3
Cc1ccc(N2C(N)=C(C#N)C(c3cccnc3)C3=C2CCCC3=O)cc1 (stereo not shown)	-13.1
COc1cccc(Nc2nc(-c3cccnc3)cs2)c1	6.87
CC(=O)c1ccc(NC(=S)NC(=O)/C=C/c2ccccc2)cc1	19.7
COc1ccc(CC(=O)Nc2cccc3ncccc23)cc1OC	6.35
O=C(COC(=O)CNC(=O)c1ccccc1)Nc1ccc2c(c1)OCO2	-3.96
Cc1cccc2cc(C#N)c(N3CCOCC3)nc12	4.26
CC1=CC2=NC(=O)CC(C)(C(=O)N(CC(=O)NC(C)C)C3CCCC3)N2C=C1 (stereo not shown)	14.3
Cc1ccc(NC(=O)CC2(CC(=O)O)CCCC2)cc1	12
CN1CCN(S(=O)C23CC4CC(CC(C4)C2)C3)CC1 (stereo not shown)	-17.1
COc1ccccc1N1CCN(/N=C/c2ccc(O)cc2O)CC1	19.8
N#Cc1c2c(c(NCc3cccnc3)n3c1nc1ccccc13)CCC2	-39.3
Cc1cccc(NC(=O)C(=O)NCC2CCCN2S(=O)(=O)c2ccccc2)c1 (stereo not shown)	-17.9

Structure (SMILES)	hERG current change (%, negative = inhibition) at 10uM [%]
Cc1ccc(N2C(=O)c3n[nH]c(C)c3C2c2cccnc2)cc1 (stereo not shown)	0.515
O=C(COC(=O)CNC(=O)c1ccc(Cl)c([N+](=O)[O-])c1)NC(=O)c1ccccc1	12.4
O=C(NCC(=O)N(Cc1cccs1)C(C(=O)NC1CCCCC1)c1ccco1)c1ccco1 (stereo not shown)	-19.8
Cc1cccc(N(C2C=CS(=O)(=O)C2)S(=O)(=O)c2ccccc2)c1 (stereo not shown)	16.5
O=C(COC(=O)c1ccc(F)cc1)Nc1ccccc1N1CCOCC1	-1.78
CC(O)CNCCCOc1ccc(Cl)cc1C(C)(C)C.O=C(O)C(=O)O (stereo not shown)	-15.9
Cc1ccsc1C(=O)C1CCCN(Cc2ccc(-n3cccn3)cc2)C1 (stereo not shown)	-67.7
CC(C)OCCCN1CC(=O)N2C(c3ccccc3)c3[nH]c4ccccc4c3C[C@H]2C1=O (stereo partly shown)	-33.3
Cc1cccn2c(CNC3CCCc4ccccc43)c(C(=O)N3CCOCC3)nc12 (stereo not shown)	-10.8
Cc1ccc(-c2nnc(CSc3nnc(C)s3)o2)cc1	-9.76
Cc1cc(Nc2c(C)n(C)n(-c3ccccc3)c2=O)n2c(nc3ccccc32)c1C#N	-73.6
CCC(C(=O)NC1CCN(C)CC1)c1ccccc1 (stereo not shown)	14.3
CCOc1ccc(CCNC(=O)c2nnn(CC(=O)Nc3ccc(OC)c(OC)c3)c2N)cc1OCC	24.2
Nc1c(C(=O)NCCN2CCOCC2)c2nc3ccccc3nc2n1Cc1ccco1	-68.8
Cc1ccccc1NC1=NC(C)(C)N=C(N)N1	10.5
CCN(C(=O)COC(=O)/C=C/c1cccc([N+](=O)[O-])c1)c1ccccc1	0.412
CCCCCCn1c(N2CCN(c3ccccc3)CC2)nc2c1c(=O)n(C)c(=O)n2C	-48.8
Cc1ccc(C)c(N(Cc2ccccc2F)S(C)(=O)=O)c1	-8.17
O=C(O)C(=O)O.O=S(=O)(c1cccc(C(F)(F)F)c1)N(CCCN1CCOCC1)Cc1cccs1	-51
Cc1ccc2[nH]c(C(=O)N3CCN(C=O)CC3)cc2c1	-0.619
CN(N)C(=S)Nc1ccc(F)cc1	20.8
Cc1ccnc(-n2c(C)cc(/C=N/NC(=O)COc3cccc4cccnc34)c2C)c1	9.88

Structure (SMILES)	hERG current change (%, negative = inhibition) at 10uM [%]
O=C(CSc1nnc(-c2ccccc2O)o1)NC1CCCCC1	-10
C=C(C)C1(O)OC(=O)C=C1OC (stereo not shown)	-0.917
CCOc1ccc(C(=O)N(C)C2CCS(=O)(=O)C2)cc1 (stereo not shown)	18.3
CSc1ccc(CN2CCC(Cc3ccccc3)CC2)cc1	-65.4
CCCCn1nc2cc(C(=O)N[C@H](C)C3CCCCC3)ccc2c1OCC	-14
Cc1ccc2c(c1)N=C(c1ccccc1)CC(C(Cl)Cl)=N2	21
O=C(CCC(=O)N1CCOCC1)c1ccc(F)cc1	36.5
CC(=O)c1ccc(OCc2cc(C(=O)N3CCC[C@H]3CO)no2)cc1	-4.61
COc1ccccc1Oc1ccc2c(c1)C(=O)N(CC(=O)O)C2=O	15.5
Cc1cc(C(=O)OCC(=O)N2CCN(c3ccccc3)CC2)c2ccccc2n1	-31.3
N/C(=N\OC(=O)c1ccc(F)cc1)c1ccccc1	-1.82
CCn1c(SCC(=O)Nc2ccc(C(C)=O)cc2)nc2c([nH]c3ccccc32)c1=O	5.85
CCCCNC(=O)c1ccc2c(c1)ncn2C1CCCCC1	-21.5
CCN1C/C(=C/c2sccc2C)c2nc3ccccc3c(C(=O)O)c2C1.Cl	-0.104
Cc1c(C=O)c2cc(OCc3ccccc3)ccc2n1C	10.2
CS(=O)(=O)Nc1ccccc1C(=O)Nc1ccccc1Cl	2.26
Cc1cc(NC(=O)CSc2ccc(-c3ccc(F)cc3)nn2)no1	12.4
CC(NC(=O)CC(O)(C(F)(F)F)C(F)(F)F)c1ccccc1 (stereo not shown)	-15.7
CCCCOC(=O)Nc1ccc(S(=O)(=O)Nn2cnnc2)cc1	16.5
CCCN(C(=O)c1cn(CC)c2nc(C)ccc2c1=O)c1c(N)n(Cc2ccccc2)c(=O)[nH]c1=O	17.8
COc1cccc(C(=O)/C=C2\Sc3ccccc3N2C)c1	5.39
CCN1C(=O)/C(=C/c2ccc(C)s2)SC1=Nc1ccc(OC)cc1	4.64
